# Measured values published in PubChem BioAssay AID1240 (Sanford-Burnham Center for Chemical Genomics, 2008).
# Out of some 50,000 compounds screened, about 800 (1.6%) showed an effect of 50% or more. Some of the results follow.
# Target: Bcl-2-like protein 10 (Homo sapiens) (UniProt Q9HD36)
# Assay: TR3 peptide-Bcl-B binding displacers, biochemical primary FP assay, phenotype converters (AID 1240);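 also: 0% = Bcl-B with tracer peptide and DMSO and 100% = tracer peptide lacking Bcl-B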
# Conditions: GST-Bcl-B / FITC-TR3 peptide fluorescence polarization; stronger effect = higher value; compound at 3.75 mg/L
# Chain of UniProt Q9HD36 (Q9HD36 whole entry, looked up): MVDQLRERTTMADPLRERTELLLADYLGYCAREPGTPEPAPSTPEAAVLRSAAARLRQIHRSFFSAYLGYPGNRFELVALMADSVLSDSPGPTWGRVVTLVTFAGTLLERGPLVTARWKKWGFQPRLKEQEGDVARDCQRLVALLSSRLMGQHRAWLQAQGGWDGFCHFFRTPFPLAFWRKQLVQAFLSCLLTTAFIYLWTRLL
row,SMILES,displacement [%]
1,CC12CCC3C(CCC4CCCCC43C)C1CC/C2=N\O (configuration not stated),-6
2,C=CCNC(=O)C1CC1(c1ccc(C)cc1)c1ccc(C)cc1 (configuration not stated),-1.2
3,CCC(=O)NC(=Nc1nc(OC)c2cc(C)ccc2n1)NC(=O)CC,0.4
4,CC1=C(C(=O)Nc2ccccc2C)C(c2ccccc2Cl)C(C#N)=C(SCC(N)=O)N1 (configuration not stated),-7.4
5,COc1cccc(OCCOc2ccccc2/C=C2/SC(=S)N(Cc3ccccc3)C2=O)c1,-6.7
6,O=C(NC(=S)Nc1cccc(C(F)(F)F)c1)c1ccco1,6.8
7,NS(=O)(=O)c1ccc2c(c1)C(=O)c1cc(S(N)(=O)=O)ccc1-2,-5.7
8,O=C(N=Nc1c(O)[nH]c2ccccc12)C12CC3CC(CC(C3)C1)C2,-11.3
9,CC(=N/O)/C(C)=N\NS(=O)(=O)c1ccc(C)cc1,15
10,CN(C)/C=C1\C=C2C(=O)c3ccccc3N2C1=O,162
11,CC1=C(C(=O)OC(C)C)C(c2ccc(Cl)c(Cl)c2)N2C(=O)CCSC2=N1 (configuration not stated),15.3
12,O=C1N=c2ccc(Br)cc2=C1c1[nH]c(=O)[nH]c1O,4.8
13,CN(C)CCNc1ccc(Cl)cc1[N+](=O)[O-],13.5
14,COc1cc(/C=C2/SC(=S)NC2=O)c([N+](=O)[O-])cc1OC,35.7
15,CCOC(=O)C(=O)C1C(=O)C(=O)C(C)C1=O (configuration not stated),14.6
16,CN(C)C(=O)COc1ccc2c3c(c(=O)oc2c1)CCCC3,-24.9
17,Cc1nc2ccccc2n1CC(O)COc1ccc(I)cc1 (configuration not stated),-18.5
18,Cc1cc(C)nc(SCC(=O)NCCc2ccccc2)n1,8.2
19,CC(C)NC(=O)c1ccc(Cl)c([N+](=O)[O-])c1,7.7
20,Cc1ccc(S(=O)(=O)N2CCCCC2)cc1[N+](=O)[O-],0.3
21,O=C(Nc1ccc2c(c1)C(=O)c1ccccc1C2=O)c1cccnc1,-5.4
22,CC(C)(C)NC(=O)C1CCC(C)(C(=O)O)C1(C)C (configuration not stated),9.8
23,COc1ccccc1N(C(=O)C(Cl)(Cl)Cl)C1C=CS(=O)(=O)C1 (configuration not stated),1.4

row,SMILES,displacement [%]
1,Cc1ccc(OCC(=O)O/N=C(\N)c2ccc(Cl)cc2)cc1,-4
2,COc1ccc(NS(=O)(=O)c2ccccc2[N+](=O)[O-])cc1Cl,2.1
3,CCCOc1ccc(N2C(=O)CC(N(CCc3ccccc3)C(=S)Nc3ccccc3)C2=O)cc1 (configuration not stated),2.2
4,CCOC(=O)C1C(=O)CC(C)(O)C(C(=O)OCC)C1c1ccc2c(c1)OCO2 (configuration not stated),4.5
5,COc1ccc(Oc2coc3cc(O)ccc3c2=O)cc1,25.3
6,O=Cc1ccccc1OCc1ccc(I)cc1,-7.1
7,COc1cccc(C(=O)Nc2ccc(I)cc2C)c1,10.3
8,COc1ccc(C2CC(=O)C3=C(C2)Nc2ccccc2NC3c2ccc(-c3ccccc3)cc2)cc1OC (configuration not stated),16.7
9,Cc1n[nH]c(C)c1CCCCCCOc1ccc(C(C)(C)C)cc1,10
10,COc1ccc(/C=N/NC(=O)Cc2cccn2C)cc1[N+](=O)[O-],-7.9
11,Cc1ccccc1NCN1C(=O)S/C(=C/C=C/c2ccccc2)C1=O,1
12,Cc1cc(OCC(O)CN2CCN(Cc3ccccc3)CC2)cc(C)c1Cl (configuration not stated),-4.5
13,CCOc1cc(C(=O)Nc2cccc3ccccc23)cc(OCC)c1OCC,15.8
14,CCC(CO)Nc1nc2c(c(=O)n(C)c(=O)n2C)n1C (configuration not stated),6.8
15,CCOc1ccc2c(C)cc(=O)oc2c1I,-1.7
16,CCc1ccc(NC(=O)c2c(-c3ccccc3)noc2C)cc1,-6.1
17,O=c1/c(=C/c2ccccc2Cl)sc2nnc(-c3ccccc3Cl)n12,-16.4
18,Cc1ccc(-c2csc(NC(=O)C(F)(F)F)n2)cc1C,-0.7
19,Cc1sc2nc(SC3C=CCCC3)[nH]c(=O)c2c1C (configuration not stated),-18.9
20,CCCc1cc(=O)oc2cc(OCC(=O)C(C)(C)C)ccc12,6.2
21,N/C(=N\OC(=O)c1cccc(Br)c1)c1ccc([N+](=O)[O-])cc1,-2.2
22,Cc1ccccc1N=C1NC(=O)CS1,-2.8
23,Cc1cc(/C=N/n2cnnc2)c(C)n1-c1ccc(Cl)cc1,11.7

row,SMILES,displacement [%]
1,N/C(=N/N=C/c1ccc2c(c1)OCO2)c1ccccn1,-7.7
2,COC(=O)c1ccc(N2C(=O)C3C(C2=O)C2C=CC3C23CC3)cc1 (configuration not stated),17.1
3,Cc1ccc(OCC(=O)O/N=C(\N)Cc2ccc([N+](=O)[O-])cc2)c(C)c1,5.9
4,CCn1c2c(c3cc(OCC(C)C)ccc31)CCCC2=O,7
5,COc1ccc(Br)cc1C(=O)Nc1cc2nn(-c3ccc(C)cc3)nc2cc1C,-6.9
6,CCCC1=NN2C(=N)/C(=C/c3ccc(OCc4ccc(F)cc4)c(OCC)c3)C(=O)N=C2S1,-6.7
7,COc1cc(C)c(CNc2ccccc2)cc1C,8.9
8,O=C(NCCCN1CCOCC1)C(=O)Nc1cccc(Cl)c1Cl,2.3
9,C/C(=N\NC(=O)c1cccc([N+](=O)[O-])c1)c1cccnc1,6.5
10,COc1cc(C2Nc3ccccc3C(=O)N2c2ccc(Cl)cc2)ccc1O (configuration not stated),14.9
11,COc1ccc(S(=O)(=O)N2CCCC2C(=O)O)cc1 (configuration not stated),-6.8
12,CCOC(=O)C(=CNc1ccccc1F)C(=O)OCC,6.6
13,COc1ccc(/C=C2\C(=O)N(c3ccc(S(N)(=O)=O)cc3)N=C2C)cc1,2.1
14,O=C(O)COc1ccc(N2C(=O)C=CC2=O)cc1,3.9
15,Cc1ccc(-c2ccc(OCC(=O)N3CCOCC3)cc2)cc1,4.4
16,CCOC(=O)c1c(C)oc2cc(Br)c(OCC(N)=O)cc12,9.3
17,O=C(Nc1cccc(NC(=O)c2ccc3ccccc3c2)c1)c1cccc(Cl)c1,-4.9
18,Cc1c(NC(=O)c2cccc(F)c2)c(=O)n(-c2ccccc2)n1C,6.1
19,CCOc1cccc(N2C(=O)CC(SCC(=O)Nc3ccc(Cl)cc3)C2=O)c1 (configuration not stated),-2.5
20,CCN(CC)Cc1c(O)ccc2oc(C)c(C(=O)c3ccc(OC)cc3OC)c12,-9.2
21,N/C(=N/c1nc2ccccc2o1)NC(=O)Cc1ccccc1,-12.8
22,Cc1ccc(COc2cc3oc(=O)c4c(c3cc2Cl)CCC4)cc1,9.2
23,O=[N+]([O-])c1cnc(N2CCN(Cc3ccccc3)CC2)c([N+](=O)[O-])c1,5.4

row,SMILES,displacement [%]
1,CCc1c(C)nc2ccc(OC)cc2c1SCC(=O)O,-15.5
2,Cc1cc([N+](=O)[O-])ccc1-c1ccc(C(=O)Nc2cc(Cl)cc(Cl)c2)o1,12.3
3,CCOc1ccc(Cl)cc1/C=C1/SC(=S)N(c2ccccc2)C1=O,0.3
4,CCCCCCOc1ccc(N2C(=O)CC(SC(N)=Nc3ccccc3)C2=O)cc1 (configuration not stated),8.7
5,CCOc1cc(/C=N/n2cnnc2)ccc1OCCOc1ccc(C)cc1,11.2
6,CC(c1ccccc1)c1nnc(N)s1 (configuration not stated),6.6
7,CCCCOc1ccc(C(=O)NCC(C)c2ccccc2)cc1 (configuration not stated),-2.9
8,COc1cc(OC)cc(C(=O)N2CCN(C3CCC(c4ccccc4)CC3)CC2)c1 (configuration not stated),5.3
9,COc1ccccc1/C=C1/SC(=S)N(CCC(=O)N2c3ccccc3Sc3ccccc32)C1=O,9.4
10,O=C1CSC2(C(=O)Nc3ccccc32)N1c1ccc(Cl)c(Cl)c1 (configuration not stated),9
11,CCOP(=O)(CN1CCN(CP(=O)(OCC)OCC)CC1)OCC,4.4
12,Cc1ccc(C(=O)CSc2ccccc2C(=O)O)cc1,0
13,CC(/C=C1\SC(=S)N(C(Cc2ccccc2)C(=O)O)C1=O)=C\c1ccccc1 (configuration not stated),17.3
14,O=C(N/N=C\c1ccccn1)c1c[nH]c2ccccc12,3
15,O=c1n(Cc2c(F)cccc2Cl)c2ccccc2n1Cc1c(F)cccc1Cl,15.9
16,Cc1cc(C)cc(N(CC(=O)Nc2ccc3c(c2)OCO3)S(=O)(=O)c2ccccc2)c1,1.8
17,COc1ccc(/C=C(\NC(=O)c2ccc(Cl)cc2)C(=O)NCCCN2CCOCC2)cc1OC,13.6
18,CCN(CC)c1ccc(C(=O)Nc2ccc(Cl)c(Cl)c2)cc1,9.6
19,Cc1nc(N)sc1C(=O)N/N=C/c1cccc(O)c1,6.3
20,CCOCCOC(=O)C1=C(C)N(CC)C(=O)NC1c1ccc([N+](=O)[O-])cc1 (configuration not stated),4.6
21,COc1ccc(N2C(=O)C(Cl)=C(NCc3ccccc3)C2=O)cc1,14.9
22,CCn1c2ccccc2c2cc(CN3CCN(C(=O)c4cccs4)CC3)ccc21,-8.5
23,COc1ccc(N(CC(=O)NCc2ccncc2)S(=O)(=O)c2ccccc2[N+](=O)[O-])c(OC)c1,-21.7

row,SMILES,displacement [%]
1,Cc1ccc(C(=O)c2cccc(N3C(=O)c4ccccc4C3=O)c2)cc1C,-5.2
2,CC(=O)OCCCN1C(=O)c2ccc(S(=O)(=O)c3ccc4c(c3)C(=O)N(CCCOC(C)=O)C4=O)cc2C1=O,10.4
3,Cc1ccc(C2CC(=O)Nc3c2cc(Br)c2ccccc32)s1 (configuration not stated),-3.9
4,O=C(N/N=C/c1ccc(O)cc1O)c1cnccn1,-15.8
5,CCCCCOC(=O)C1=C(C)NC2=C(C(=O)CCC2)C1c1cccc(Cl)c1Cl (configuration not stated),13.3
6,N/C(=N/OCc1cccc([N+](=O)[O-])c1)c1nonc1N,3
7,COc1ccccc1OCc1ccoc1C(=O)O,7.5
8,CCOCCOC(=O)C(C)Sc1n[nH]c(=O)[nH]c1=O (configuration not stated),1
9,COc1ccc(NC(=O)c2ccc(N(C)C)cc2)cc1,3.7
10,O=C(CCCN1C(=O)c2cccc3cccc(c23)C1=O)N1CCCCC1,-3.3
11,COc1ccc(C(=O)c2c(C)oc3ccc(O)cc23)cc1OC,7.3
12,O=C(Nc1ccncc1)c1cc2c(ccc3ccccc32)oc1=O,9.6
13,CCOC(=O)C1=C(O)CSC1=Nc1ccc(F)cc1,-8.1
14,Cc1cc(/C=N/N2C(=O)c3ccccc3C2=O)c(C)n1-c1ccccc1,11.4
15,COc1ccc(Oc2c(C(F)(F)F)oc3c(CN4CCCC4)c(O)ccc3c2=O)cc1,13.2
16,CCOC(=O)c1ccccc1Nc1cn(C(C)=O)c2ccccc12,-1.7
17,Cc1cccc(CC2CC(=O)N(c3ccccc3)C2=O)c1 (configuration not stated),12.1
18,CCc1ccc(/C=N/N2CCN(Cc3cccc4ccccc34)CC2)cc1,-3.1
19,O=C(N1CCOCC1)N1CCN(c2ccc(F)cc2)CC1,14.1
20,COc1ccc(CCNC(=O)CN(c2ccc(Br)cc2)S(C)(=O)=O)cc1OC,-8.4
